Results published in PubChem BioAssay AID652104 (National Center for Advancing Translational Sciences (NCATS), 2013).
About 7,200 (1.8%) of roughly 410,000 compounds were called active. Inconclusive results, whose numbers are uncertain, are shown with a selection of clear calls. Calls come from the whole dose curve; as a rule, active = well fitted activation curve with a large enough effect; inconclusive = small, poorly fitted or top-dose-only effect, or another doubt; inactive = no such curve, though single readings can be large or run the other way. No potency is given beside an inconclusive call; the fits are too rough.

test: qHTS of TDP-43 Inhibitors; conditions: TDP-43 expressing yeast growth rescue, BacTiter-Glo, 24 h; growth rescue (activation): at 46.1 µM (top of the series) unless noted; note: nearly all actives have a fitted effect of over 50% in size; for growth rescue (activation): % of control where 0% means no effect
Summary of the method: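 Yeast cells expressing TDP-43 under galactose induction are exposed to compounds for 24 hr at 30 deg C. BacTiter-Glo luminescence measures growth, so protective compounds score as activators.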
Potency is the fitted concentration of half-maximal effect; tags give direction and shape of the fitted curve.

Row | SMILES | growth rescue (activation) | Potency
1 | COc1ccc(N(C)C(=O)c2cn(C3CCCCC3)c(=O)c3c2c2ccccc2n3C)cc1 | inactive: 13.5% | 
2 | Cc1ccccc1-c1nnc(SCc2ccccc2)o1 |  | inconclusive [activator, partial curve]
3 | O=C(c1ccoc1)N1CCN(c2cc(-c3ccco3)nc3cc(-c4ccccc4)nn23)CC1 |  | active: 20 µM
4 | COc1ccc(-c2nc3ccc(N4CCCC4)cc3c(=O)[nH]2)cc1OC | inactive: -3.91% | 
5 | COC(CNC(=O)CCc1c(C)nc2c(c(C)nn2-c2ccc(C)cc2)c1C)OC |  | inconclusive [activator, partial curve]
6 | C/C(=N/NC(=O)c1ccc(Br)o1)c1cccc(NC(=O)c2ccc(C)o2)c1 |  | inconclusive [activator, partial curve]
7 | N#CCC(=O)c1sccc1-n1cccc1 |  | inconclusive [activator, full curve]
8 | Cn1c(=O)[nH]c(=O)c2c1nc([N+](=O)[O-])n2Cc1ccccc1 |  | inconclusive [activator, partial curve]
9 | Nc1nccc(/C=C/c2c(Cl)cccc2Cl)n1 |  | inconclusive [activator, partial curve]
10 | CC(=O)N(CN1C(=O)c2ccccc2C1=O)c1ccc2c(c1)oc1ccccc12 |  | inconclusive [activator, full curve, poor fit]
11 | O=C(Nc1cccc([N+](=O)[O-])c1)c1ccc([N+](=O)[O-])o1 | inconclusive: -93.1% [activator] | 
12 | N=c1ccn(CC(=O)c2ccc(-c3ccccc3)cc2)cc1 | inactive: -7% | 
13 | O=C(NCCc1csc(-c2ccccc2)n1)c1c(F)cccc1F |  | active: 20 µM
14 | Cc1ccc(-c2nc3sc(CCNC(=O)c4ccc(Br)o4)c(C)n3n2)cc1 |  | active: 17.8 µM
15 | COc1ccc(-c2cc3ccc(O)c(CN4CCOCC4)c3oc2=O)cc1OC | inactive: 0.68% [at 9.22 µM] | 
16 | Cc1ccc(-n2ncc3c(N4CCCC(C)C4)ncnc32)c(C)c1 (centres undefined) |  | inconclusive [activator, single point]
17 | O=C(Nc1ccccc1N1CCCC1)c1cc(Cl)ccc1Cl |  | inconclusive [activator, partial curve]
18 | O=C(Nc1ccc(Cl)cc1)N1CCSCC1 |  | inconclusive [activator, partial curve]
19 | CCC(=C(c1ccc(OC)cc1)c1ccc(OC)cc1)c1cn(CC(O)CN(CCO)CCO)c2ccccc12 (centres undefined) | inactive: 5.08% | 
20 | CC(=O)NC(C)(C)C1CC=C(C)/C(=N\O)C1 (centres undefined) |  | inconclusive [activator, single point]
21 | CCN(CC(=O)NCc1ccc(Cl)cc1)C(=O)CSc1ccc(Br)cc1 |  | inconclusive [activator, single point]
22 | COc1ccccc1NC(=O)C(=O)NCCc1csc(-c2cccc(F)c2)n1 | inactive: 9.74% | 

Row | SMILES | growth rescue (activation) | Potency
23 | O=C(Nc1ccccc1)C1=C[C@@H](c2ccc(Br)cc2)C[C@@H](OCc2ccc(CO)cc2)O1 |  | inconclusive [activator, partial curve]
24 | CCOC(=O)c1c(S(=O)(=O)N2CCCC(C(=O)Nc3cccc(Cl)c3)C2)c(C)n(C)c1C (centres undefined) | inactive: 12.1% | 
25 | CCOc1ccc(-c2nnc(Nc3ccc(S(N)(=O)=O)cc3)c3ccccc23)cc1 |  | inconclusive [activator, full curve]
26 | CC(C)(C)c1ccc(OCC(=O)N2CCC(c3nc4ccccc4s3)CC2)cc1 | inactive: 20.2% | 
27 | CS(=O)(=O)N(CC(=O)Nc1ccccc1-c1ccccc1)c1cccc(F)c1 |  | inconclusive [activator, partial curve]
28 | COc1ccc(Nc2c(CCc3ccccc3)nc3nc(C)cc(C)n23)cc1 |  | inconclusive [activator, partial curve]
29 | Cc1[nH]c2c(Cl)cccc2c1CCNC(=O)C1CCCCC1C(=O)OCC(F)(F)F (centres undefined) |  | inconclusive [activator, single point]
30 | CC1(C)CC(=O)N(c2ccc(Cl)c(Cl)c2)C(=O)C1 |  | inconclusive [activator, single point]
31 | Cc1ccc2c(c1)N(C(=O)CCC(=O)Nc1ccccc1Br)CC(C)O2 (centres undefined) |  | inconclusive [activator, single point]
32 | Cc1cccc(NC(=O)c2c(C)oc3ncn(CC(C)C)c(=O)c23)n1 | inactive: 22.8% | 
33 | C=CCn1c(-c2cccc(Cl)c2)n[nH]c1=S |  | inconclusive [activator, partial curve]
34 | CN(C)Cc1ncccc1Oc1nc2cc(-c3cccc(Cl)c3)sc2c(=O)n1C |  | inconclusive [activator, full curve, poor fit]
35 | CC(C)(C)OC(=O)NCCCCCc1cn(CC(=O)NCCCCCCCCCCC(=O)N2CCN(C(=O)OC(C)(C)C)CC2)nn1 |  | inconclusive [activator, partial curve]
36 | Cc1ccc(C)c(NC(=S)NCCc2ccc(F)cc2)c1 |  | inconclusive [activator, partial curve]
37 | COc1cc(C2Oc3ccccc3C=C2[N+](=O)[O-])cc(OC)c1OC (centres undefined) |  | active: 5.01 µM
38 | COc1ccc(C(=O)/C=C/c2ccc(OC3CSC3)cc2)cc1OC |  | inconclusive [activator, partial curve]
39 | COc1ccc(Nc2ncnc3sc(-c4ccccc4)cc23)c(OC)c1 |  | inconclusive [activator, partial curve]
40 | Cc1cccc(S(=O)(=O)NC(=O)C2(C)CCN2C(=O)C2(c3ccc(Cl)cc3)CCC2)c1 (centres undefined) |  | inconclusive [activator, single point]
41 | Cc1ccc(NC(=S)N2CCSC2c2cccs2)cc1 (centres undefined) |  | inconclusive [activator, single point]
42 | CC(=O)OC1CCC2(C)C(CCC3C4CC=C(C(C)=O)C4(C)OC(=O)CC32)C1 (centres undefined) | inactive: -85% | 
43 | Cc1ccc2onc(CNC(=O)N3CCN(c4cccc(C)c4C)CC3)c2c1 |  | active: 20 µM
44 | COCc1cccc(-c2csc(C(C)(O)c3cccc(OC)c3)n2)c1 (centres undefined) |  | inconclusive [activator, single point]
